Measurements taken from paper PMC5105952.
Changes are numbered by the printed parent chain. Numbers in names are those of the source. These are yes or no findings as the source states them, for the method shown. For some of these results: Binding seen in cells or lysates may run through a third protein. Some entries that bind do so weakly or less than the wild type. For some of these results: Sequences can lack the tags named with a protein.

T1: Ver (Drosophila melanogaster) (UniProt Q9VTZ2)
T1 sequence: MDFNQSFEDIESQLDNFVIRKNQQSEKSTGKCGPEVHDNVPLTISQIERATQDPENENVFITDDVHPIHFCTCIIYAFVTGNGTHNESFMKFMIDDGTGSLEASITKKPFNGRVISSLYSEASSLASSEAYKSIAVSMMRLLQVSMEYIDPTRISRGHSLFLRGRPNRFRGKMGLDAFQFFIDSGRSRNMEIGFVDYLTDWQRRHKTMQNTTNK

T2: Ver L101P (Drosophila melanogaster) (UniProt Q9VTZ2)
T2 sequence: T1 sequence with L101P

T3: Ver L162P (Drosophila melanogaster) (UniProt Q9VTZ2)
T3 sequence: T1 sequence with L162P

T4: Ver D96G (Drosophila melanogaster) (UniProt Q9VTZ2)
T4 sequence: T1 sequence with D96G

T5: 3xFLAG-Ver (Drosophila melanogaster) (UniProt Q9VTZ2)
T5 sequence: T1 sequence

B1: Moi (protein, UniProt B7Z0L8 1-178)
chain: MSLVPEASTSRAPKYCYFFKTLLVEELELETSYHNLHYGQCALIGRLAFKANQYRLENVRVKCLPKKYSLGEGTVSLLILGLTHDKVVENRVSTGRYCIVRGEVVLHNVQHPKGAKLTAGGVYDKINSLSNDPLAQKQYLSALLATYRPAIDLWYIQVIDRAEDLLTRRLEMRSLIEK
B2: V5-Moi (protein, UniProt B7Z0L8 1-178)
chain: B1 chain
B3: Moi G45R (protein, UniProt B7Z0L8 1-178)
chain: B1 chain with G45R

Columns and labels:
[1] = biological target: T1, Ver (Drosophila melanogaster); assay: two-hybrid; yeast three-hybrid: Tea fragments on the Gal4 activation domain, either Ver or Moi on the LexA DNA-binding domain, the other of Moi or Ver as a third stand-alone protein
[2] = biological target: T2, Ver L101P (Drosophila melanogaster); assay: two-hybrid; LacZ-based yeast two-hybrid, vectors and strains as in ref. 32
[3] = biological target: T1, Ver (Drosophila melanogaster); assay: as above
[4] = biological target: T3, Ver L162P (Drosophila melanogaster); assay: as above
[5] = biological target: T4, Ver D96G (Drosophila melanogaster); assay: as above
[6] = biological target: T5, 3xFLAG-Ver (Drosophila melanogaster); assay: co-IP; single anti-FLAG purification from insect cells co-expressing 3xFLAG-Ver and V5-Moi, with or without 3xHA-Tea (baculovirus)

| binding [1] | binding [2] | binding [3] | binding [4] | binding [5] | binding [6] | Binder |
| --- | --- | --- | --- | --- | --- | --- |
| binds | no binding | binds | no binding | no binding |  | B1 |
|  |  |  |  |  | binds | B2 |
|  |  | no binding |  |  |  | B3 |
